According to the supplement of paper PMC12217912:
This is one part of the list. The full chains were built here from the parent and the listed change. Inactive controls read about 0.05.

B1: TEV protease; numbered along this chain (parent)
chain: MGESLFKGPRDYNPISSSICHLTNESDGHTTSLYGIGFGPFIITNKHLFRRNNGTLVVQSLHGVFKVKDTTTLQQHLVDGRDMIIIRMPKDFPPFPQKLKFREPQREERICLVTTNFQTKSMSSMVSDTSCTFPSGDGIFWKHWIQTKDGQCGSPLVSTRDGFIVGIHSASNFTNTNNYFTSVPKNFMELLTNQEAQQWVSGWRLNADSVLWGGHKVFMVKPEEPFQPVKEATQL

Variants of: B1
Test: raw area under fraction-flipped curve 0-4 h after induction (AUC4h, not background-subtracted), DNA-recorder readout of cleavage of the substrate (dimensionless); higher = more cleavage of the substrate by the protease variant
Conditions: temperature: 34 °C; time window: 0-4 h after rhamnose induction
Protocol: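 In vivo DNA recorder in E. coli TOP10(DE3) ΔrhaA at 34 °C. Each TEVp single-site mutant (parent TEVp 0) is paired with a single-site variant of the 7-mer TEVs (canonical ENLYFQ|S). The substrate sits between flexible linkers in a Bxb1-sfGFP-TEVs-SsrA fusion, so cleavage stabilises Bxb1 and speeds flipping of a recombination array, read by NGS. The value is the raw area under the fraction-flipped curve over 0-4 h after rhamnose induction (AUC4h), with ≥20 reads per time point. It is not background-subtracted; inactive controls average about 0.047.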
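Note: Bxb1 expression induced with 0.2% (w/v) L-rhamnose at OD600 near 0.5, cultures sampled hourly, flipped fraction per protease–substrate barcode pair counted by paired-end Illumina sequencing.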

| Variant | area with substrate CNLYFQS | area with substrate SNLYFQS | area with substrate VNLYFQS | area with substrate GNLYFQS | area with substrate INLYFQS | area with substrate KNLYFQS | area with substrate LNLYFQS | area with substrate NNLYFQS | area with substrate RNLYFQS | area with substrate TNLYFQS |
| --- | --- | --- | --- | --- | --- | --- | --- | --- | --- | --- |
| N206A | 0.0449 | 0.0563 | 0.0657 |  |  |  |  |  |  |  |
| S182T | 0.062 |  |  | 0.059 | 0.0358 |  |  |  |  |  |
| F218A | 0.0713 | 0.078 |  | 0.0706 |  | 0.0666 | 0.0892 | 0.089 | 0.0334 | 0.0487 |
| T174H | 0.0845 | 0.0609 |  | 0.0667 |  |  |  | 0.0438 |  | 0.0662 |
| Q197F | 0.0517 | 0.0843 |  | 0.0659 | 0.0543 |  |  | 0.117 |  | 0.0559 |
| M83Y | 0.0622 |  |  |  |  |  | 0.0534 |  |  | 0.0458 |
| C131Y | 0.0779 |  |  |  |  | 0.0974 | 0.0672 |  | 0.0857 |  |
| L5Y | 0.0908 |  |  |  | 0.0709 |  | 0.0843 | 0.0689 |  |  |
| C111R | 0.048 |  | 0.1 |  |  | 0.0904 |  | 0.0791 |  | 0.0718 |
| F180Q | 0.0384 |  |  |  |  |  |  |  |  | 0.0536 |
| V58E | 0.0486 |  |  |  |  |  |  |  |  |  |
| S209L | 0.0834 | 0.0578 | 0.0486 |  |  |  | 0.0617 |  |  | 0.0668 |
| Q197N | 0.0696 |  |  | 0.0734 |  |  | 0.054 |  |  | 0.0737 |
| P222R | 0.0627 | 0.0637 | 0.0463 | 0.0571 | 0.0521 | 0.0697 | 0.0711 | 0.0759 | 0.0502 | 0.0658 |
| T129M | 0.0628 |  |  |  |  | 0.0621 |  |  |  | 0.0623 |
| A170M | 0.0535 |  |  |  |  | 0.0708 |  |  |  | 0.0638 |
| V58Q | 0.0554 |  | 0.0352 |  |  |  |  | 0.0552 |  | 0.0575 |
| R50F | 0.0789 | 0.0845 |  |  | 0.0712 | 0.0694 | 0.0764 |  |  | 0.079 |
| L235G | 0.066 | 0.0764 |  |  |  |  |  |  |  |  |
| T71I | 0.0743 |  |  | 0.067 |  |  |  |  | 0.0507 |  |
| F163T | 0.0658 | 0.0663 |  |  | 0.0555 | 0.0569 | 0.0755 | 0.0672 |  | 0.0411 |
| S154Q | 0.0666 | 0.0518 |  |  | 0.066 |  | 0.0812 |  |  |  |
| L190S | 0.0688 | 0.0623 |  |  |  | 0.0708 |  |  |  | 0.0618 |

| Variant | area with substrate CNLYFQS | area with substrate SNLYFQS | area with substrate VNLYFQS | area with substrate GNLYFQS | area with substrate INLYFQS | area with substrate KNLYFQS | area with substrate LNLYFQS | area with substrate NNLYFQS | area with substrate RNLYFQS | area with substrate TNLYFQS |
| --- | --- | --- | --- | --- | --- | --- | --- | --- | --- | --- |
| G54F | 0.0522 | 0.0561 | 0.0434 | 0.076 |  |  | 0.0651 |  |  | 0.0608 |
| G138C | 0.0497 | 0.0661 |  |  |  |  |  |  |  | 0.0628 |
| K100A | 0.0786 |  | 0.0829 | 0.0606 | 0.0613 |  |  |  |  | 0.0901 |
| V220T | 0.098 | 0.0571 |  |  |  |  | 0.036 |  |  |  |
| D161P | 0.0636 |  |  |  |  |  |  |  |  | 0.0737 |
| G153W | 0.0583 |  | 0.0418 |  |  |  |  |  |  |  |
| N116M | 0.0642 |  |  |  |  |  |  |  |  | 0.0724 |
| F117W | 0.0634 |  |  | 0.0804 | 0.0528 |  |  |  |  |  |
| K148D | 0.0584 |  | 0.05 | 0.0689 | 0.0633 | 0.0674 | 0.0497 | 0.0525 | 0.06 | 0.0601 |
| Q59A | 0.0647 | 0.0765 |  |  |  | 0.0527 | 0.0627 | 0.0728 |  | 0.0671 |
| F133T | 0.0707 |  |  | 0.0749 | 0.0645 |  | 0.0522 | 0.0677 |  |  |
| L73F | 0.0543 | 0.0579 |  |  | 0.0687 |  | 0.0628 |  | 0.0562 | 0.0618 |
| T115P | 0.0772 |  |  |  | 0.0643 |  | 0.0658 |  |  | 0.112 |
| F218D | 0.0757 | 0.0561 | 0.078 |  |  | 0.0631 | 0.0563 |  |  | 0.0586 |
| T147C | 0.0579 |  |  |  |  | 0.0705 | 0.0732 |  |  |  |
| T30V | 0.0663 |  | 0.0656 |  |  |  | 0.0559 |  |  |  |
| M122G | 0.0679 |  |  | 0.0927 |  | 0.0419 | 0.067 | 0.0712 |  |  |
| S182L | 0.0679 | 0.0336 |  |  |  | 0.0518 |  |  |  |  |
| L211K | 0.0588 |  |  |  |  |  | 0.0695 | 0.0695 |  |  |
| N178V | 0.0666 |  | 0.0761 |  |  |  | 0.0642 | 0.0561 |  | 0.0543 |
| Y34E | 0.0772 |  |  |  |  | 0.0574 |  | 0.0583 |  | 0.0672 |
| L235N | 0.0828 | 0.0593 | 0.0682 | 0.0633 |  | 0.0727 |  | 0.0672 |  | 0.061 |

Same assay, conditions: temperature: 34 °C; time window: 0-4 h after rhamnose induction

| Variant | area with substrate YNLYFQS | area with substrate HNLYFQS | area with substrate MNLYFQS | area with substrate PNLYFQS | area with substrate WNLYFQS | area with substrate FNLYFQS | area with substrate QNLYFQS |
| --- | --- | --- | --- | --- | --- | --- | --- |
| F218A | 0.0591 |  |  |  |  |  |  |
| T174H |  | 0.0752 | 0.0714 | 0.0633 | 0.0549 |  |  |
| Q197F | 0.0726 | 0.0808 | 0.0755 | 0.0634 |  | 0.0526 | 0.0754 |
| M83Y |  |  | 0.0473 | 0.0667 |  |  |  |
| L5Y |  |  | 0.0811 | 0.084 | 0.048 |  |  |
| C111R | 0.0477 | 0.0747 |  | 0.0703 | 0.0676 |  |  |
| V58E |  | 0.0243 |  |  |  |  |  |
| S209L |  |  |  |  | 0.0654 |  |  |
| Q197N |  | 0.0706 |  |  | 0.0584 |  |  |
| P222R | 0.0528 | 0.067 |  | 0.0543 | 0.0588 | 0.0782 |  |
| T129M | 0.0816 | 0.0647 |  | 0.0617 | 0.0614 | 0.0608 |  |
| A170M |  |  |  | 0.059 |  |  |  |
| V58Q |  |  | 0.0468 | 0.0618 |  | 0.0362 |  |
| R50F | 0.0649 | 0.0822 | 0.081 | 0.0953 | 0.0711 | 0.083 | 0.0898 |
| L235G |  |  |  | 0.0683 |  |  |  |
| T71I | 0.0556 | 0.0331 |  | 0.0575 |  | 0.0582 |  |
| F163T |  |  |  | 0.0748 | 0.0699 | 0.0751 | 0.0734 |
| S154Q |  | 0.0147 |  | 0.0614 | 0.0607 | 0.0478 | 0.0478 |
| L190S |  |  | 0.0624 |  | 0.0713 | 0.0618 |  |
| G54F | 0.0516 |  |  | 0.0549 | 0.0902 |  | 0.0491 |
| G138C |  |  |  | 0.0666 | 0.061 |  |  |

| Variant | area with substrate YNLYFQS | area with substrate HNLYFQS | area with substrate MNLYFQS | area with substrate PNLYFQS | area with substrate WNLYFQS | area with substrate FNLYFQS | area with substrate QNLYFQS |
| --- | --- | --- | --- | --- | --- | --- | --- |
| K100A |  | 0.0718 |  |  | 0.0605 | 0.0606 |  |
| V220T |  | 0.0766 |  | 0.0779 |  |  |  |
| D161P |  |  |  | 0.0522 | 0.0506 |  |  |
| G153W | 0.0544 | 0.0452 |  |  | 0.0581 |  |  |
| N116M |  |  | 0.0671 | 0.0676 | 0.0761 |  |  |
| F117W | 0.0515 |  |  | 0.0635 | 0.0718 |  | 0.0715 |
| K148D | 0.0585 |  |  | 0.0648 | 0.0604 |  |  |
| Q59A |  | 0.0376 |  |  | 0.0503 |  |  |
| F133T | 0.0722 | 0.068 |  | 0.0494 |  |  |  |
| L73F |  | 0.0462 |  | 0.0634 | 0.0581 |  |  |
| T115P | 0.0439 | 0.0568 |  |  | 0.0337 |  |  |
| F218D | 0.058 | 0.0413 | 0.0563 |  | 0.0566 | 0.0641 |  |
| T147C | 0.0694 |  |  |  | 0.0655 |  |  |
| T30V | 0.0751 | 0.0698 |  | 0.0622 | 0.0615 |  |  |
| M122G | 0.0887 |  | 0.0672 |  | 0.0595 |  | 0.0745 |
| S182L |  | 0.0592 |  |  | 0.0495 |  |  |
| L211K |  | 0.0597 | 0.0625 |  |  |  |  |
| N178V | 0.0645 | 0.0754 | 0.0306 |  | 0.0571 |  |  |
| Y34E |  | 0.0506 |  |  | 0.053 |  |  |
| L235N | 0.0675 | 0.0654 |  |  |  |  |  |
